The whole screen tested about 310,000 compounds, of which about 14,000 (4.5%) showed an effect of 50% or more. The effect is printed as a negative number. The list shows a part of the results.
target: human ether-à-go-go-related gene (hERG) potassium channel (human, UniProt Q12809); test: primary screen, population patch clamp on CHO cells stably expressing hERG
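Also: peak tail current of the secondary pulse compared with the same well before compound.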

human ether-à-go-go-related gene (hERG) potassium channel, sequence (Q12809 whole entry, looked up): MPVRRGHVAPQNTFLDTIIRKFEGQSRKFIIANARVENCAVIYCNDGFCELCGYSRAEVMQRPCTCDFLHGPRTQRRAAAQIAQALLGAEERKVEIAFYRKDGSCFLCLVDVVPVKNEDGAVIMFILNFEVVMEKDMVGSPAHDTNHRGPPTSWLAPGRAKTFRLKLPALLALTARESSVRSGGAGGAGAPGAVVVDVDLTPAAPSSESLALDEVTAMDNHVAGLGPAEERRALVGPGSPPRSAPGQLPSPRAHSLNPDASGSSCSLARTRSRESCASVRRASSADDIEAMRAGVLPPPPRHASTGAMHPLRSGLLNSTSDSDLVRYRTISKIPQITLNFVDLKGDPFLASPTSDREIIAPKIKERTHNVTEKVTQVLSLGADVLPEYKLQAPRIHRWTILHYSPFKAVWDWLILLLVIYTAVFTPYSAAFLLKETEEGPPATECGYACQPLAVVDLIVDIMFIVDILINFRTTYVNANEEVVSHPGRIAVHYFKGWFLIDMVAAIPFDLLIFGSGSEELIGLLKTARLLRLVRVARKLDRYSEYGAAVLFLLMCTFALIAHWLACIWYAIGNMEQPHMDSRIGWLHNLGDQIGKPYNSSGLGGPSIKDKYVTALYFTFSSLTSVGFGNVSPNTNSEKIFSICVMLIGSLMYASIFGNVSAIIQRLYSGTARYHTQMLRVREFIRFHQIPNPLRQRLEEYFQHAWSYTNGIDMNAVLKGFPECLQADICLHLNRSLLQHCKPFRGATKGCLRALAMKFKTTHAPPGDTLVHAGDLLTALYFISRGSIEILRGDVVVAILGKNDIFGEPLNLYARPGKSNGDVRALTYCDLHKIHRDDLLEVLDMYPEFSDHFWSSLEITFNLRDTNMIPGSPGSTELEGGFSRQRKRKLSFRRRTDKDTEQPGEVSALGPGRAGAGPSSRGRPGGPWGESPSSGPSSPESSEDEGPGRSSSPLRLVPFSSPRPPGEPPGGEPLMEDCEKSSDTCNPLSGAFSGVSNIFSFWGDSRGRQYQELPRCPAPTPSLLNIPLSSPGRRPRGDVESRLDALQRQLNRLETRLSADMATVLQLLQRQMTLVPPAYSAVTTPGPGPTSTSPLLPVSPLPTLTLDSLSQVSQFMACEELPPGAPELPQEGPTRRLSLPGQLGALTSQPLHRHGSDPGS

| SMILES | hERG current change (%, negative = inhibition) at 10uM [%] |
| --- | --- |
| O=C(CNC(=O)c1ccncc1)N/N=C/c1cc(Br)ccc1OCc1ccccc1 | 3.49 |
| CCOc1cc(C(=O)Nc2ccc([N+](=O)[O-])cn2)cc(OCC)c1OCC | -29 |
| O=S(=O)(CCN1CCSCC1)c1ccc(Cl)cc1 | 10.1 |
| CCn1nnnc1SCC(=O)N1c2ccccc2CCc2ccccc21 | 2.92 |
| CC(=O)N(Cc1cc(=O)[nH]c2ccccc12)c1ccc(C)cc1 | -14 |
| COc1ccc(C=Nc2cccc3ncccc23)cc1 | 4.44 |
| O=C(COC(=O)c1ccccc1Nc1cccc(C(F)(F)F)c1)NCc1ccco1 | -1.48 |
| COc1cccc(C(=O)NC(=S)N2c3ccccc3CC2C)c1OC (stereo not shown) | 8.64 |
| CCS(=O)(=O)c1ccc2c(c1)N(S(C)(=O)=O)CC(C(=O)NN)O2 (stereo not shown) | 27.5 |
| CC1(C)Cc2ccccc2-c2nnc(-c3ccccn3)n21 | 1.13 |
| COc1ccc(C(=O)N2CCCC(CCC(=O)NCc3ccc(F)c(F)c3)C2)o1 (stereo not shown) | -25 |
| O=C1/C(=C\c2cccc(O)c2)SC(=S)N1Cc1ccccc1 | 6.61 |
| CCOC(=O)c1c(N)sc2c1C1CCN2CC1.Cl | -2.25 |
| O=C(CN(C1CCCCC1)S(=O)(=O)c1ccccc1)NCc1ccco1 | -22 |
| N#CC1(c2ccccc2)CCCN1C(=O)c1ccc(Br)o1 (stereo not shown) | -8.37 |
| Clc1ccc(N2CCN(Cc3ccc(Br)o3)CC2)cc1 | 7.93 |
| COc1ccc(-c2ccc(SCC(=O)Nc3cccc(C(C)=O)c3)nn2)cc1OC | 0.703 |
| CCOc1ccc2nc(/N=C/c3nc(-c4ccccc4)oc3O)sc2c1 | 4.73 |
| O=C(O)CCC(=O)NNc1nc(-c2ccccc2)c2cc(Cl)ccc2n1 | 14.4 |
| CC(NC(=O)Cn1nc(-c2ccccc2)c2ccccc2c1=O)c1ccccc1 (stereo not shown) | -14.3 |
| c1ccc(CSc2nnc3c(n2)OC(c2ccco2)Nc2ccccc2-3)cc1 (stereo not shown) | 10 |
| Cc1ccc(NC(=O)CSc2nc(C)c(Cc3ccccc3)c(=O)[nH]2)cc1 | 13.4 |

| SMILES | hERG current change (%, negative = inhibition) at 10uM [%] |
| --- | --- |
| CCOc1ccc(-c2c(=O)n(O)c3ccccc3[n+]2[O-])cc1 | 20.8 |
| O=C1CCc2cc(S(=O)(=O)Nc3ccccc3)ccc2N1 | -3.42 |
| COc1ccc(-c2noc(CCCC(=O)N3CCOCC3)n2)cc1 | 30.7 |
| C=CCNC(=S)Nc1sc2c(c1C(=O)OCC)CC(C(C)C)OC2 (stereo not shown) | 12.3 |
| CCc1ccccc1NC(=O)NNS(=O)(=O)c1cc(C)ccc1C | -0.925 |
| COc1ccc(N2CCN(c3ncnc4scc(-c5ccc(C)cc5)c34)CC2)cc1 | 13 |
| CC(C)C(=O)NNc1ccccc1 | 1.77 |
| Cc1ccccc1C(=O)Nc1sc2c(c1C(=O)O)CCC2 | 19 |
| O=C1[C@@H]2Cc3c([nH]c4ccccc34)C(c3cccc([N+](=O)[O-])c3)N2C(=O)CN1C1CCN(Cc2ccccc2)CC1 (stereo partly shown) | 2.2 |
| O=S(=O)(Nc1ccc2c(c1)oc1ccccc12)N1CCCC1 | 13.9 |
| N#Cc1cccc(NC(=O)Cc2ccsc2)c1 | 17.5 |
| CN(C)c1cccc2c(C=C(C#N)C#N)ccc(N(C)C)c12 | -45.1 |
| CC(OC(=O)c1ccco1)C(=O)Nc1ccc(C(F)(F)F)cc1 (stereo not shown) | -16 |
| CC1CCN(Cc2c(C(=O)N/N=C/c3cc(Br)ccc3O)nnn2-c2nonc2N)CC1 | 19.9 |
| Oc1ccc(N2CCN(C(c3ccncc3)c3nnnn3C3CCCC3)CC2)cc1 (stereo not shown) | -17 |
| Nc1ccc(C#Cc2ccccc2)cc1 | -3.64 |
| Cc1ccc2sc(NC(=O)CN3C(=O)c4ccccc4C3=O)nc2c1C | 4.09 |
| O=C(Cn1nc(Cc2cccnc2)c2ccccc2c1=O)NCc1ccc(F)cc1 | -46.4 |
| COc1ccc(NC(=O)Cn2c(=O)n(CC3CCCO3)c(=O)c3ccccc32)c(OC)c1 (stereo not shown) | 5.85 |
| CSc1cccc(NC(=O)CSc2ncccc2C(=O)Oc2cccc([N+](=O)[O-])c2)c1 | -1.61 |
| CC(C)(C)C(=O)NC1CC2CCCC(C1)N2C(=O)Nc1ccc(Cl)cc1 (stereo not shown) | 5.25 |
